# The list shows a part of the results. Sequences were assembled here from the parent chain. Inactive controls read about 0.05.
# B1: TEV protease; numbered along this chain (parent)
# chain: MGESLFKGPRDYNPISSSICHLTNESDGHTTSLYGIGFGPFIITNKHLFRRNNGTLVVQSLHGVFKVKDTTTLQQHLVDGRDMIIIRMPKDFPPFPQKLKFREPQREERICLVTTNFQTKSMSSMVSDTSCTFPSGDGIFWKHWIQTKDGQCGSPLVSTRDGFIVGIHSASNFTNTNNYFTSVPKNFMELLTNQEAQQWVSGWRLNADSVLWGGHKVFMVKPEEPFQPVKEATQL
# Variants of: B1
# Experiment: raw area under fraction-flipped curve 0-4 h after induction (AUC4h, not background-subtracted), DNA-recorder readout of cleavage of the substrate (dimensionless); higher = more cleavage of the substrate by the protease variant
# Conditions: temperature: 34 °C; time window: 0-4 h after rhamnose induction
# Description: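 In vivo DNA recorder in E. coli TOP10(DE3) ΔrhaA at 34 °C. Each TEVp single-site mutant (parent TEVp 0) is paired with a single-site variant of the 7-mer TEVs (canonical ENLYFQ|S). The substrate sits between flexible linkers in a Bxb1-sfGFP-TEVs-SsrA fusion, so cleavage stabilises Bxb1 and speeds flipping of a recombination array, read by NGS. The value is the raw area under the fraction-flipped curve over 0-4 h after rhamnose induction (AUC4h), with ≥20 reads per time point. It is not background-subtracted; inactive controls average about 0.047.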
# 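Note: Bxb1 expression induced with 0.2% (w/v) L-rhamnose at OD600 near 0.5, cultures sampled hourly, flipped fraction per protease–substrate barcode pair counted by paired-end Illumina sequencing.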
Variant,area with substrate ANLYFQS,area with substrate CNLYFQS,area with substrate DNLYFQS,area with substrate FNLYFQS,area with substrate GNLYFQS,area with substrate KNLYFQS,area with substrate NNLYFQS,area with substrate PNLYFQS,area with substrate TNLYFQS,area with substrate VNLYFQS,area with substrate WNLYFQS,area with substrate YNLYFQS,area with substrate HNLYFQS,area with substrate INLYFQS,area with substrate LNLYFQS,area with substrate RNLYFQS,area with substrate SNLYFQS,area with substrate MNLYFQS,area with substrate QNLYFQS
R51A,0.0926,0.0713,0.0695,0.0624,0.0623,0.0724,0.0568,0.0719,0.0631,0.0642,0.063,0.0805,,,,,,,
H47D,0.0636,0.0638,0.0553,,0.0981,,0.0552,,0.054,0.0617,0.052,0.0621,0.0504,0.0565,0.0654,0.044,0.0617,,
H47K,0.0425,0.0447,0.0559,0.0607,0.0691,0.0597,0.0751,0.0588,0.0497,,0.061,0.0481,0.0564,0.0564,0.0572,,0.0531,0.0727,
H47Y,0.0485,0.0578,0.0604,0.0573,,0.064,0.0481,0.055,0.0567,0.0579,0.0728,0.047,0.0649,0.0663,,0.0674,0.0561,0.0662,
H47N,0.0389,0.064,0.0788,0.0643,0.06,0.0495,0.0606,0.0486,0.0561,0.0506,0.0556,0.0569,0.0698,0.0566,,,,0.0533,
H47F,0.0569,0.0564,0.0554,,0.0511,0.0589,0.0653,0.0547,0.0556,,0.0545,0.0617,0.0573,0.0387,0.0581,,,0.0583,0.0781
H47L,0.0492,0.0597,0.0575,0.065,0.0646,0.0652,0.0456,0.0508,0.0655,,,0.0569,0.0681,,0.0577,0.0656,0.0752,0.0513,0.051
S60L,0.072,0.0601,0.121,0.0525,0.061,0.028,0.05,,0.0751,0.0534,,0.0598,0.0475,,,0.0628,0.0593,0.0546,
F38P,0.0304,0.0414,0.0375,0.0355,0.0509,,0.0503,0.0386,0.042,,0.0322,0.0354,0.0413,0.0358,0.0401,,0.015,0.0321,
G37P,0.0408,0.0405,0.0547,0.0403,0.0589,0.0429,0.0416,0.0508,0.0427,,,,0.0571,0.0583,,,0.0287,,
F49K,0.0553,0.0536,0.0627,,0.0561,0.0419,0.05,0.0415,0.0556,0.0566,0.0455,0.0506,0.051,0.0531,0.0558,0.0502,,,0.0528
F49P,0.0575,0.0627,0.0604,,0.0524,,,0.073,0.0552,0.0577,0.054,0.0575,0.0527,0.052,,,0.0476,0.0491,
F49G,0.0609,0.0503,0.0553,,0.0555,0.058,0.0554,0.0612,0.0527,,0.0594,0.0444,0.0512,0.0517,0.067,,0.0578,0.0534,
F49R,0.0577,0.0441,0.0484,0.0506,0.0574,0.0657,0.0431,0.0558,0.0615,0.0503,0.0572,0.0526,0.0499,,0.0533,,0.0655,,0.0738
F49V,0.0415,0.0492,0.0848,0.0547,,0.084,0.0528,0.0504,0.0492,,,,,0.0567,0.0617,,0.0581,0.0581,
F65W,0.0805,0.0723,0.104,,0.076,0.0572,0.0812,0.0762,,0.0729,,0.0511,0.0703,,0.0666,0.0536,0.0599,,
I42C,0.0455,0.0745,0.0836,0.0699,0.0522,0.0589,0.0583,,0.0672,0.0674,0.0605,0.0581,0.0634,0.0593,0.0612,,0.0648,0.0645,
I42Y,0.05,0.0482,0.0553,0.0384,0.0414,0.0524,0.0391,0.0352,0.0441,,0.0375,0.0373,0.0406,0.0482,0.0425,0.0376,0.038,0.0453,0.0675
G39Q,0.0186,0.0407,0.0542,,0.0114,0.0558,0.0417,0.041,0.0373,0.0463,0.034,0.0716,0.0605,0.0379,0.0439,,0.0414,0.0518,0.0472
G39W,0.0442,0.0464,0.0464,0.0429,,0.0592,0.0421,0.0367,0.0442,0.0685,0.0035,0.0449,0.0525,,0.0415,0.0554,0.0386,,
G63Q,0.0552,0.063,0.0839,,0.0591,0.0554,0.0645,0.0671,0.0629,0.0749,0.0674,0.0694,0.0709,0.0616,0.0512,,0.0612,,
G63Y,0.0496,0.0511,0.077,0.0451,0.0289,,,0.054,0.0606,,0.0491,0.0524,0.0438,,,0.0728,0.0533,0.0628,0.0662
K46P,0.0404,0.0542,0.0486,0.0515,0.0976,0.0685,,0.046,0.0575,0.0529,,,0.0673,0.0635,0.0627,,0.0483,0.036,
F41W,0.0486,0.0661,0.0661,,,0.0578,0.0516,0.0631,0.0651,,0.0654,0.0565,0.0603,0.0546,,,,0.0658,

# — the supplement of paper PMC12217912
